Source: the supplement of paper PMC3334620
Whole data set: some 33,000 sequences, median “E-score (-0.5 to 0.5)” near -0.056, cut for the highest 2% near 0.38. The list shows a part of the results.

What follows are sequences tested against Stb4 (UniProt P50104) (assay: PBM E-score (8-mer binding enrichment) (E-score (-0.5 to 0.5)); higher = stronger / more preferred TF binding; most listed sequences are background and not binding sites). Details: protein concentration: 200 nM; construct: GST-DNA-binding domain.
Protocol: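 Universal 'all 10-mer' protein binding microarrays (Agilent AMADID 015681) probed with GST-tagged S. cerevisiae TFs (full-length or DBD) made by in vitro transcription/translation (PURExpress), about 100-200 nM. Bound TF was detected with fluorescent anti-GST. Each ungapped 8-mer (which stands for itself and its reverse complement) is scored by the PBM enrichment score (E-score), a modified Wilcoxon-Mann-Whitney statistic from -0.5 to +0.5, computed with the Universal PBM Analysis Suite. Scale: above 0.35 generally sequence-specific binding.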

First: GACAAATC
Second: CTAAGACA
The “PBM E-score” value of the first is higher: -0.00095 for the first, -0.0966 for the second.

First: CCGGTTTC
Second: GAAAAAAA
The “PBM E-score” value of the first is higher: 0.259 for the first, 0.162 for the second.

Compared with AGGCCCTG, CCCCGACG is higher in “PBM E-score” value: -0.199 for the first, 0.277 for the second.

First: AACATGTG
Second: CGGTGACA
The “PBM E-score” value of the first is lower: -0.00801 for the first, 0.163 for the second.

First: CATAGCAC
Second: CTAAACAG
The “PBM E-score” value of the first is higher: -0.0999 for the first, -0.123 for the second.

Compared with AACCCGCG, CTAAAGAG is lower in “PBM E-score” value: 0.172 for the first, -0.169 for the second.

First: CTAGACGC
Second: CGTTACCA
The “PBM E-score” value of the first is lower: -0.226 for the first, -0.193 for the second.

Going from CTTATTTC to ATTACTTA, the “PBM E-score” value rises from 0.0623 to 0.0911.

First: CCGTACCA
Second: GTCATAAC
The “PBM E-score” value of the first is higher: 0.249 for the first, 0.0465 for the second.

Going from CCGGTTTA to AGGCCAGA, the “PBM E-score” value falls from 0.203 to -0.0213.

Going from CCACCGGG to CATTTAAA, the “PBM E-score” value falls from 0.178 to 0.0214.

First: GAATCATA
Second: AAAAGTGC
The “PBM E-score” value of the first is higher: -0.0546 for the first, -0.106 for the second.

Compared with CATCACTA, AGTTTTTG is higher in “PBM E-score” value: -0.115 for the first, -0.00647 for the second.

Going from GATTTACA to GCACCGAC, the “PBM E-score” value rises from 0.0241 to 0.189.

Going from CACTACGA to GAAGCTGA, the “PBM E-score” value rises from -0.0972 to 0.0871.

Going from GGATTAGA to AGATAACG, the “PBM E-score” value rises from 0.0784 to 0.093.

Compared with GGCAGGAC, GAACGACA is lower in “PBM E-score” value: 0.0678 for the first, -0.0972 for the second.

Going from GCCTCCCA to CACTGTAC, the “PBM E-score” value falls from -0.156 to -0.168.

Compared with CATAATGC, ACGTTGCT is lower in “PBM E-score” value: -0.00732 for the first, -0.138 for the second.

Going from ACCGTTAC to GACGCCTC, the “PBM E-score” value falls from -0.0808 to -0.169.

First: GGGAATTA
Second: CACTCTAA
The “PBM E-score” value of the first is higher: 0.0702 for the first, -0.151 for the second.

First: CATTATAG
Second: GCAGTTAC
The “PBM E-score” value of the first is lower: -0.063 for the first, -0.0397 for the second.

First: CGAATGAC
Second: GTAAAGAA
The “PBM E-score” value of the first is higher: 0.277 for the first, 0.0948 for the second.

Going from CATTTAAG to CGTAGCTC, the “PBM E-score” value rises from -0.205 to -0.0298.

Compared with AAGAAGGC, TCGATTCA is higher in “PBM E-score” value: -0.183 for the first, -0.135 for the second.

Going from CCTCATCA to ATCTCTCG, the “PBM E-score” value rises from -0.175 to 0.193.

First: GTTACAGA
Second: ATACGAAT
The “PBM E-score” value of the first is lower: -0.199 for the first, -0.0803 for the second.

Compared with CCCACGCC, GCATAGCA is lower in “PBM E-score” value: -0.082 for the first, -0.129 for the second.

Compared with AGGTGCAC, AAGTTTAT is higher in “PBM E-score” value: 0.0308 for the first, 0.124 for the second.

Going from GACCTTGC to AGATCATA, the “PBM E-score” value falls from -0.00555 to -0.191.

First: CCGCAAGA
Second: ACAGAAAA
The “PBM E-score” value of the first is higher: 0.151 for the first, 0.0774 for the second.

Going from AAACTCCT to AATATAGA, the “PBM E-score” value rises from -0.146 to -0.0363.

First: CACCCATG
Second: CACTACTA
The “PBM E-score” value of the first is lower: -0.151 for the first, -0.0321 for the second.

First: ATTCGCAA
Second: AAAGGCAA
The “PBM E-score” value of the first is higher: -0.069 for the first, -0.188 for the second.

First: GGGGTCTA
Second: GTATCCCA
The “PBM E-score” value of the first is higher: 0.048 for the first, -0.0937 for the second.

Compared with AACCGAGT, CAAAGCTG is lower in “PBM E-score” value: 0.305 for the first, -0.0644 for the second.

First: AAGGTTAT
Second: CCTGCGTA
The “PBM E-score” value of the first is higher: 0.049 for the first, -0.0594 for the second.

Compared with AACTGTTA, AGTAGTAC is higher in “PBM E-score” value: -0.038 for the first, -0.028 for the second.

First: CAATAAGC
Second: GGCATACC
The “PBM E-score” value of the first is lower: -0.128 for the first, 0.0586 for the second.

Compared with ATATGAGC, AGTGCGTG is higher in “PBM E-score” value: -0.115 for the first, -0.0522 for the second.

Compared with GCATCGCC, GACCGAAC is higher in “PBM E-score” value: 0.00305 for the first, 0.286 for the second.

First: ATGAGACA
Second: GGCAAAGA
The “PBM E-score” value of the first is lower: -0.117 for the first, 0.0407 for the second.

Going from GAGTGGCC to AATGGTTC, the “PBM E-score” value rises from -0.0643 to -0.0491.

Compared with ACACGTCG, ACGCCTGA is lower in “PBM E-score” value: 0.046 for the first, -0.231 for the second.

First: GTGACTTA
Second: CATTTGGC
The “PBM E-score” value of the first is lower: -0.169 for the first, -0.0228 for the second.

First: AAGGTAAG
Second: TATGCGCA
The “PBM E-score” value of the first is lower: -0.142 for the first, -0.105 for the second.

Compared with ATGACTTC, GACGGCAA is higher in “PBM E-score” value: -0.0339 for the first, 0.24 for the second.

First: CGCAAGCC
Second: ACTTTCCT
The “PBM E-score” value of the first is higher: -0.0679 for the first, -0.22 for the second.

First: CGTCGAGC
Second: TAACCCAA
The “PBM E-score” value of the first is higher: -0.0924 for the first, -0.116 for the second.

Going from TCATGGCA to AGTAAGGA, the “PBM E-score” value falls from -0.0593 to -0.105.

Compared with CCCAATTC, GGCAGGGA is lower in “PBM E-score” value: -0.0232 for the first, -0.0459 for the second.

First: CAATCGCG
Second: ACGCGACC
The “PBM E-score” value of the first is higher: -0.0263 for the first, -0.0646 for the second.

Compared with GCGAACGC, CAGCTTGC is lower in “PBM E-score” value: -0.0479 for the first, -0.146 for the second.

Going from CTAGCAGC to CACTGTTC, the “PBM E-score” value rises from -0.238 to -0.0206.

Compared with TAAGTTCA, AGTTCGGG is higher in “PBM E-score” value: -0.0313 for the first, 0.426 for the second.

First: GCATCGTA
Second: GCAGTCTA
The “PBM E-score” value of the first is higher: -0.026 for the first, -0.226 for the second.

Going from GAAATTAC to GCAGCTAA, the “PBM E-score” value falls from 0.0977 to -0.185.

Going from CGCAGTAA to ATCTGCAG, the “PBM E-score” value falls from -0.0226 to -0.0776.

Going from AAAAGTAC to GGTTAGTA, the “PBM E-score” value rises from -0.0396 to 0.154.

Compared with ACTAGTTC, ACCCCTTG is lower in “PBM E-score” value: -0.0341 for the first, -0.27 for the second.

Going from CCAGATTA to ATGTTACA, the “PBM E-score” value falls from -0.00871 to -0.0716.

Going from ATATACAG to ATTTCCTA, the “PBM E-score” value rises from -0.0645 to -0.012.

First: TCAGCAAA
Second: ATCCGTCA
The “PBM E-score” value of the first is lower: -0.0931 for the first, 0.28 for the second.

Going from AAGTTTCT to ACGGGCGG, the “PBM E-score” value rises from -0.242 to 0.159.

First: GAGAGCGC
Second: CGCGACCG
The “PBM E-score” value of the first is lower: 0.0595 for the first, 0.0849 for the second.

Compared with CAAGCCGG, TCGACTCA is lower in “PBM E-score” value: 0.216 for the first, -0.158 for the second.

Going from ACGCCTAT to AAGCTTTC, the “PBM E-score” value rises from -0.142 to 0.113.

Going from GTTGTTAA to GCTATAAA, the “PBM E-score” value rises from -0.0452 to 0.0582.

First: CTTAGCAC
Second: TATGGAGA
The “PBM E-score” value of the first is higher: 0.0582 for the first, -0.223 for the second.

First: CCTGAATC
Second: GAATGATC
The “PBM E-score” value of the first is lower: -0.0486 for the first, 0.0811 for the second.

Compared with CGTTCGTA, ACGTACCG is higher in “PBM E-score” value: -0.0524 for the first, 0.158 for the second.

Compared with AGGTACCT, CGTAAGAG is higher in “PBM E-score” value: -0.215 for the first, -0.0499 for the second.

Going from GCTAAGAA to ACCATACA, the “PBM E-score” value rises from 0.0449 to 0.0548.

First: AGCATCGG
Second: CGTTAGCA
The “PBM E-score” value of the first is higher: 0.292 for the first, -0.0245 for the second.

First: GGTTTCCA
Second: GACGAAAA
The “PBM E-score” value of the first is lower: -0.164 for the first, 0.0557 for the second.

Going from AGCCGGCT to CTTAGCCC, the “PBM E-score” value falls from 0.238 to -0.0241.

Going from AGGATCTG to AGTTAGTA, the “PBM E-score” value rises from -0.198 to -0.0847.

Going from ACTGCTAC to ATCCTTAC, the “PBM E-score” value rises from -0.19 to -0.0109.

Compared with ATAGATGA, CAGAGCCA is lower in “PBM E-score” value: -0.0532 for the first, -0.247 for the second.

Compared with CGGGCAAA, AGGCTTTA is lower in “PBM E-score” value: 0.197 for the first, -0.149 for the second.

First: ACACGGAA
Second: AACCTACG
The “PBM E-score” value of the first is higher: 0.338 for the first, -0.064 for the second.

Going from CAATATGG to CTCGACAA, the “PBM E-score” value falls from -0.189 to -0.243.

Going from GTTTTGGA to ACCCGTGG, the “PBM E-score” value rises from -0.0981 to 0.192.

Going from ATCGATAA to AGCGTGGG, the “PBM E-score” value falls from 0.0115 to -0.158.

First: AATTAGCC
Second: AGATTATG
The “PBM E-score” value of the first is higher: 0.225 for the first, 0.0822 for the second.

Compared with CCATCCCC, ACATCATA is lower in “PBM E-score” value: 0.0182 for the first, -0.207 for the second.
